Screen size: about 310,000 compounds; about 2,200 (0.71%) showed an effect of 50% or more. The effect is printed as a negative number. Some of the results follow.

human ether-à-go-go-related gene (hERG) potassium channel, sequence (Q12809 whole entry, looked up): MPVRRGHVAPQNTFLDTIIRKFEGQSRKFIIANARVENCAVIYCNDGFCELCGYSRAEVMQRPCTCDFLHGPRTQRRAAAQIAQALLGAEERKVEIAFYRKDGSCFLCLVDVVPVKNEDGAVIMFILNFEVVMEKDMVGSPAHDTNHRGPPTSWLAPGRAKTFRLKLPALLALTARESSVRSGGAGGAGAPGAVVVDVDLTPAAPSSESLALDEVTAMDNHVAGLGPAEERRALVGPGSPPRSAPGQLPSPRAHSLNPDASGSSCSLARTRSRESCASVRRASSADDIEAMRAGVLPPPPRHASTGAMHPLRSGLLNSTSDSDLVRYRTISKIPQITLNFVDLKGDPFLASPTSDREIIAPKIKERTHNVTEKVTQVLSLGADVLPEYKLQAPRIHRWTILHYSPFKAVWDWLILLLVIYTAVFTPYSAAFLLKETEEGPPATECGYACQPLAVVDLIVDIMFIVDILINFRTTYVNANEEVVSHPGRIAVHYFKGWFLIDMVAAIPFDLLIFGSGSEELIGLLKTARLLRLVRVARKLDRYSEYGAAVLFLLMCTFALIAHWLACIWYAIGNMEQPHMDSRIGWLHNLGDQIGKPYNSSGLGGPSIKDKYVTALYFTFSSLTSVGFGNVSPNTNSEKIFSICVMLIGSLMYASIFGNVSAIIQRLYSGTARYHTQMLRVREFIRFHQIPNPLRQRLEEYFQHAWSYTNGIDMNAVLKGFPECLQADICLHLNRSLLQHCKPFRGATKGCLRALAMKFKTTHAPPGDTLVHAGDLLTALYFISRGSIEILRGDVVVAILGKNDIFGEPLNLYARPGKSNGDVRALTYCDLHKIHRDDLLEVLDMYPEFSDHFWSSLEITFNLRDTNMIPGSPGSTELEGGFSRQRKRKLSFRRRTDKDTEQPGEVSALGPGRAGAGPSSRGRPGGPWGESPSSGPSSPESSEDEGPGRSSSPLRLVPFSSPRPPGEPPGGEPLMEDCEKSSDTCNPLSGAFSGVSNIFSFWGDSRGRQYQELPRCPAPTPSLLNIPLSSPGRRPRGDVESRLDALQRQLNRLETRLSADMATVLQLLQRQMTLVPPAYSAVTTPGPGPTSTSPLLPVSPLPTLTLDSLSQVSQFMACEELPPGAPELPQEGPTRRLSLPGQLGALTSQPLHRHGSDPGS

This assay has as its target human ether-à-go-go-related gene (hERG) potassium channel (human, UniProt Q12809). The experiment in a line: primary screen, population patch clamp on CHO cells stably expressing hERG.
Turning to `Cc1nn(Cc2ccc(F)cc2)c(C)c1NC(=O)c1cnn2c1NC(c1ccccc1)CC2C(F)(F)F` (stereo not shown), the “hERG current change (%, negative = inhibition) at 1uM” value is given as -7.25%. Take `CCCCn1c(SCC(=O)c2ccc(OCC)cc2)nc2cc(S(N)(=O)=O)ccc21`: the “hERG current change (%, negative = inhibition) at 1uM” value is listed as 12.9%. Consider `COCCNS(=O)(=O)c1ccc2c(c1)oc(=O)c1cc(S(=O)(=O)NCCOC)ccc12`, for which the “hERG current change (%, negative = inhibition) at 1uM” value is on record as 2.31%. For `O=C(Cn1ncc2c([nH]c3ccccc32)c1=O)Nc1ccc(CN2CCCCC2)cc1` the value was -29.3%; for `COc1ccc(NC(=O)CCSc2cc(C)c3ccccc3n2)cc1`, -2.94%; for `Cc1cnc(=O)[nH]c1SCC(=O)Nc1nccs1`, 2.76%. In the case of `CC(C)(C)c1ccc(S(=O)(=O)N2CCN(c3ncccn3)CC2)cc1`, the “hERG current change (%, negative = inhibition) at 1uM” value is 11.4%.

Regarding `COCCNc1nnc(SC(C)C(=O)Nc2c(C)n(C)n(-c3ccccc3)c2=O)s1` (stereo not shown), the “hERG current change (%, negative = inhibition) at 1uM” value came to 5.64%. Under `Nc1nc2sc3c(c2c(=O)s1)CCCC3` stands 12.5%. For the compound `CN1CCN(C(c2cccnc2)c2ccc3cccnc3c2O)CC1` (stereo not shown), the “hERG current change (%, negative = inhibition) at 1uM” value is on record as 13.1%. On to `CCN1CCN(C(=O)/C(C#N)=C/c2ccc(OC(F)F)cc2)CC1.Cl`, for which the “hERG current change (%, negative = inhibition) at 1uM” value is on record as -28.5%.

Take `CN(CCCNC(=O)c1cn(C)c2ccc(S(=O)(=O)N(C)C)cc2c1=O)c1ccccc1`: the “hERG current change (%, negative = inhibition) at 1uM” value is on record as -7.84%. Turning to `CC(C(=O)N1CCN(c2ccccc2F)CC1)c1ccc([N+](=O)[O-])cc1` (stereo not shown), the “hERG current change (%, negative = inhibition) at 1uM” value was -7.04%. As to `CCS(=O)(=O)N1CCC(C(=O)NCc2cccc(OC)c2)CC1`, the “hERG current change (%, negative = inhibition) at 1uM” value is recorded as 7.79%.

Take `COc1cccc(C2=NOC(C(=O)Nc3cc(C)on3)C2)c1OC` (stereo not shown): the “hERG current change (%, negative = inhibition) at 1uM” value was 7.17%. Under `CC(=O)c1ccc(NC(=O)C(C)OC(=O)c2ccc(Br)o2)cc1` (stereo not shown) stands -6.96%; under `CC1CCN(C(=O)CCNC(=O)c2ccccc2Cl)CC1`, 8.51%; under `Cc1ccc(C(=O)Cn2nnc(-c3ccccc3)n2)cc1`, 11.8%. Under `CCC(C)NS(=O)(=O)c1ccc(NC(=O)Cc2ccc(OC)cc2)cc1` (stereo not shown) stands 10.9%; under `CCN(Cc1ccccc1)C(=O)CCNS(=O)(=O)c1ccc2c(c1)CC(C)N2C(C)=O` (stereo not shown), 7.11%; under `O=C(NC(=S)NC1CCCCC1)c1ccc(Cl)cc1`, -3.64%. For the compound `CC1CCN(c2ccc(-c3cccs3)nn2)CC1`, the “hERG current change (%, negative = inhibition) at 1uM” value was 4.68%. Under `Cc1c(C(=O)N2CCN(c3ccccc3)CC2)oc2c1C(=O)CC(C)(C)C2` stands -0.551%; under `CCN(C(=O)c1ccc(C(C)(C)C)cc1)c1nnc(Cn2nnc3ccccc32)s1`, 7.42%.

On to `CN1CCN(c2ncnc3c2cnn3C)CC1`, for which the “hERG current change (%, negative = inhibition) at 1uM” value is reported as 15%. Under `CC1(c2nnc(-c3ccncc3)o2)CC(c2ccccc2)=NO1` (stereo not shown) stands 16.4%; under `CCOc1cc(C(=O)O/N=C(\N)c2ccccn2)cc(OCC)c1OCC`, 2.3%. `O=C(c1ccco1)c1coc2c1cc(O)c1ccccc12`: the “hERG current change (%, negative = inhibition) at 1uM” value is recorded as 11.8%. As for `CCOC(=O)C1CCN(c2nc3ccccc3nc2C(C#N)C(=O)OC(C)C)CC1` (stereo not shown), the “hERG current change (%, negative = inhibition) at 1uM” value turned out to be 12.6%.

Take `Cc1ccc(C)c(OCC(=O)N/N=C/c2ccsc2)c1`: the “hERG current change (%, negative = inhibition) at 1uM” value was 11.7%.

Regarding `Cc1ccc(S(=O)(=O)N2CCN(c3ccccc3)CC2)cc1`, the “hERG current change (%, negative = inhibition) at 1uM” value is given as 13.7%. As for `COc1ccc(C(=O)NCC(=O)n2nc(C)cc2C)cc1OC`, the “hERG current change (%, negative = inhibition) at 1uM” value amounted to 21.5%. As for `Cc1ccc(NC(=O)N2CCC(C(=O)NCc3ccc(F)cc3)CC2)cc1`, the “hERG current change (%, negative = inhibition) at 1uM” value is recorded as -14%.

Consider `Cc1ccc(NC2=CC(=O)C(=O)c3ccccc32)c(C)c1`, for which the “hERG current change (%, negative = inhibition) at 1uM” value was found to be 12%.

For `CS(=O)(=O)c1ccc(Cl)c(C(=O)OCC(=O)NC2CCCCCCC2)c1`, the “hERG current change (%, negative = inhibition) at 1uM” value is given as -6.69%. Turning to `Cc1cc(C)n(CC(O)COCc2ccccc2)n1` (stereo not shown), the “hERG current change (%, negative = inhibition) at 1uM” value turned out to be 10.6%.

For `COc1ccc(-c2nc3ccc(C(=O)NCC(OC)OC)cc3nc2-c2ccc(OC)cc2)cc1`, the “hERG current change (%, negative = inhibition) at 1uM” value is recorded as 10.2%. As for `COc1c(OC)c(O)c2c(=O)cc(-c3c(O)cccc3O)oc2c1OC`, the “hERG current change (%, negative = inhibition) at 1uM” value amounted to 9.06%. For the compound `CCN(CC)S(=O)(=O)c1cccc(NC(=O)c2ccccc2Br)c1`, the “hERG current change (%, negative = inhibition) at 1uM” value is on record as 9.8%. For `Cc1ccc(-c2cc(C(F)F)n3ncc(C(=O)Nc4c(C)nn(Cc5c(Cl)cccc5Cl)c4C)c3n2)cc1`, the “hERG current change (%, negative = inhibition) at 1uM” value is given as 23.1%.

For the compound `COc1cccc(N2CCN(C(=O)c3cc(-c4ccc(F)cc4)[nH]c3C)CC2)c1`, the “hERG current change (%, negative = inhibition) at 1uM” value is reported as -23.8%. Consider `CC(=O)Nc1cnc2ccccc2n1`, for which the “hERG current change (%, negative = inhibition) at 1uM” value stood at 9.39%. For `O=C(CN(C(=O)CNC(=O)c1ccco1)c1ccc(F)cc1)NC1CCCCC1` the value was 7.31%; for `CSC(=NC#N)N1CCN(c2c(C)cccc2C)CC1`, -7.55%; for `C[C@H]1CN=C(N(C)C)N1CC1CCC(C(C)(C)C)CC1` (stereo partly shown), -15.4%. As for `O=C(Nc1cccc(Cl)c1N1CCOCC1)c1ccc2c(c1)OCCO2`, the “hERG current change (%, negative = inhibition) at 1uM” value amounted to 6.12%. Under `O=C(COC(=O)C1CC2C=CC1C2)Nc1cccc(S(=O)(=O)N2CCCCCC2)c1` (stereo not shown) stands 3.14%.

Regarding `C#CCOCCOCCOCCNc1nc(N2CCN(C(=O)CCCCCCCCCCNC(=O)[C@H](CCCCN)n3cc(CCCC(=O)O)nn3)CC2)nc(N2CCN(C(=O)CCCCCCCCCCNC(=O)[C@H](CCCCN)n3cc(CCCC(=O)O)nn3)CC2)n1`, the “hERG current change (%, negative = inhibition) at 1uM” value turned out to be 9.07%. Turning to `O=C(CSc1ccccn1)N1CCN(S(=O)(=O)c2ccc(Cl)cc2)CC1`, the “hERG current change (%, negative = inhibition) at 1uM” value is -0.585%. Under `Cc1nnc(NC(=O)c2ccc(S(=O)(=O)N3CCCCC3C)cc2)o1` (stereo not shown) stands 10.8%; under `COc1cc(Cl)ccc1OCc1cc(C(=O)N(C)C2CC(C)(C)NC(C)(C)C2)no1`, 14%; under `C=CCCc1ccc(C#N)c(SCc2c(C(=O)OCC)c3cc(OC(C)=O)c(Br)cc3n2C)n1`, 3.3%. Under `CCOc1ccc(NC(=S)N(Cc2ccc(Cl)cc2)Cc2ccco2)cc1` stands 10.1%.

Take `O=C(Nc1cc(Cl)ccc1O)c1snnc1-c1ccccc1`: the “hERG current change (%, negative = inhibition) at 1uM” value is 10.8%.

As for `CCN(CC(=O)Nc1ccc(NC(C)=O)cc1)C(=O)CCCc1nc2ccccc2s1`, the “hERG current change (%, negative = inhibition) at 1uM” value is reported as 21.6%. Take `CC(=O)C1=C(c2cccc([N+](=O)[O-])c2)N(C(C)=O)n2c(C)nnc2S1`: the “hERG current change (%, negative = inhibition) at 1uM” value came to 1.05%. For the compound `CCCOc1ccc(-c2c(C(=O)N/N=C/c3ccc(OCC)cc3)nnn2-c2nonc2N)cc1`, the “hERG current change (%, negative = inhibition) at 1uM” value was determined as 12.3%. Under `Cc1ccccc1C(=O)NC(C(N)=O)P(=O)(OC(C)C)OC(C)C` (stereo not shown) stands -24.8%; under `C[C@@H](NC(=O)c1[nH]cnc1C(=O)Nc1ccc(Cl)cc1)c1ccccc1`, 19.9%; under `CN(C)C(CNc1ccc(C(F)(F)F)cn1)c1ccccc1` (stereo not shown), 7.51%. Under `O=C(COC(=O)CC12CC3CC(CC(C3)C1)C2)Nc1cccnc1Cl` stands 1.93%; under `O=C(NCCCN1CCC(Cc2ccccc2)CC1)C1CC(=O)N(C2CCCCCC2)C1` (stereo not shown), -29.9%; under `O=C(Cn1nnc(-c2ccc(N3CCOCC3)cc2)n1)N1CCOCC1`, -2.69%.

Take `COc1ccc(Cc2nnc(NC(=O)Nc3ccc(C)cc3)s2)cc1OC`: the “hERG current change (%, negative = inhibition) at 1uM” value was 13.5%. Consider `CCN(CC)S(=O)(=O)c1ccc(NS(=O)(=O)c2ccc(C)c(C)c2)cc1`, for which the “hERG current change (%, negative = inhibition) at 1uM” value was -3.41%. Under `CC(NC(=O)/C=C/c1cnc2ccccc2n1)C12CC3CC(CC(C3)C1)C2` (stereo not shown) stands 4.27%; under `CN(C)CCCn1c2c(c(SCC(=O)Nc3ccc4c(c3)OCCO4)nc1=O)CCC2`, 4.13%. For `O=P1(Oc2ccccc2)C[C@@H](O)[C@@H](O)[C@H](COCc2ccccc2)O1` (stereo partly shown) the value was 7.07%; for `COc1ccc(F)cc1C(=O)C1CCCN(Cc2c(C)n(C)n(-c3ccccc3)c2=O)C1` (stereo not shown), -0.866%. For `C/C(=N\NC(=O)C1COc2ccccc2O1)c1ccc(Cl)s1` (stereo not shown), the “hERG current change (%, negative = inhibition) at 1uM” value was 18.1%. For `Cc1cccc(-n2c(C)cc(C)c(C#N)c2=O)c1` the value was 6.14%; for `Cc1c(NC(=O)c2ccc(F)c(S(=O)(=O)N3CCOCC3)c2)c(=O)n(-c2ccccc2)n1C`, 8.58%. On to `O=C(CCNC(=O)c1ccc(Cl)cc1)Nc1ccccc1N1CCCCC1`, for which the “hERG current change (%, negative = inhibition) at 1uM” value is 7.8%. On to `CC(NCc1ccc(S(N)(=O)=O)cc1)C(=O)Nc1ccc([N+](=O)[O-])cc1Cl` (stereo not shown), for which the “hERG current change (%, negative = inhibition) at 1uM” value is listed as -6.93%. On to `COc1ccccc1-c1nnc(SCC(=O)NC2CC2)n1C`, for which the “hERG current change (%, negative = inhibition) at 1uM” value was -12%.

Regarding `COc1ccccc1CCC(=O)Nc1cc(S(=O)(=O)N2CCCCC2)ccc1N1CCN(C)CC1`, the “hERG current change (%, negative = inhibition) at 1uM” value is recorded as 7.81%. For `CCCC(=O)NC(C)c1nc2ccccc2n1CC` (stereo not shown) the value was 5.95%; for `Cc1sc2nc(SCC(=O)N3CCOCC3)[nH]c(=O)c2c1C`, 12.8%; for `CCOc1ccc(N(CC(=O)NCc2ccc(C)cc2)S(=O)(=O)c2c(C)[nH]c(=O)[nH]c2=O)cc1`, 11.8%. In the case of `COc1cccc(NC(=O)COC(=O)C2CC(=O)N(c3ccc(C)cc3)C2)c1` (stereo not shown), the “hERG current change (%, negative = inhibition) at 1uM” value was 6.44%. For the compound `O=C(c1n[nH]c2ccccc12)N1CCN(S(=O)(=O)c2ccccc2)CC1`, the “hERG current change (%, negative = inhibition) at 1uM” value came out at 3.18%.

In the case of `CC(C)Cc1ccc(CN2CCCC(NC(=O)CCN3CCOCC3)C2)cc1` (stereo not shown), the “hERG current change (%, negative = inhibition) at 1uM” value is given as 4.74%. In the case of `CCc1ccccc1Nc1nc2ccccc2n1CC`, the “hERG current change (%, negative = inhibition) at 1uM” value is given as 19%. Take `CCOc1ccc2nc(N(CCCN(C)C)C(=O)c3ccc(C(=O)c4ccccc4)cc3)sc2c1.Cl`: the “hERG current change (%, negative = inhibition) at 1uM” value was found to be 5.4%. `O=C(CN1CCOCC1)Nc1c(C(=O)C2CC2)oc2ccccc12`: the “hERG current change (%, negative = inhibition) at 1uM” value is reported as 9.86%.

(Values after paper PMC4336329 (PLoS ONE, 2015).)
